Source: the supplement of paper PMC11741623
This is one part of the list. Interaction screen of human proteins with wild-type SARS-CoV-2 proteins by split-DHFR complementation in yeast, 1 µg/mL methotrexate. Value = fitness of the pair (three or more lineages) minus that of the viral protein without a human partner, on a scale set by negative (0) and fused positive (1) controls, mean of up to three cultures; higher = more likely to interact. Active = false discovery rate below 0.05 (one-sided t-test) in at least one culture. Nearly all pairs are not hits, and differences among them are mostly noise (correlation between cultures about 0.3); most hits were seen in one culture only. Human sequences are the Swiss-Prot entries looked up by gene name; the clone may be another isoform. NSP2 values were corrected by the authors for a growth advantage. Listed are human proteins with a hit and a random twelfth of the others.

B1: NRBP2, Q9NSY0 (protein)
chain: MAAPEPAPRRAREREREREDESEDESDILEESPCGRWQKRREQVNQGNMPGLQSTFLAMDTEEGVEVVWNELHFGDRKAFAAHEEKIQTVFEQLVLVDHPNIVKLHKYWLDTSEACARVIFITEYVSSGSLKQFLKKTKKNHKAMNARAWKRWCTQILSALSFLHACSPPIIHGNLTSDTIFIQHNGLIKIGSVWHRIFSNALPDDLRSPIRAEREELRNLHFFPPEYGEVADGTAVDIFSFGMCALEMAVLEIQTNGDTRVTEEAIARARHSLSDPNMREFILCCLARDPARRPSAHSLLFHRVLFEVHSLKLLAAHCFIQHQYLMPENVVEEKTKAMDLHAVLAELPRPRRPPLQWRYSEVSFMELDKFLEDVRNGIYPLMNFAATRPLGLPRVLAPPPEEVQKAKTPTPEPFDSETRKVIQMQCNLERSEDKARWHLTLLLVLEDRLHRQLTYDLLPTDSAQDLASELVHYGFLHEDDRMKLAAFLESTFLKYRGTQA
B2: ART3, Q13508 (protein)
chain: MKTGHFEIVTMLLATMILVDIFQVKAEVLDMADNAFDDEYLKCTDRMEIKYVPQLLKEEKASHQQLDTVWENAKAKWAARKTQIFLPMNFKDNHGIALMAYISEAQEQTPFYHLFSEAVKMAGQSREDYIYGFQFKAFHFYLTRALQLLRKPCEASSKTVVYRTSQGTSFTFGGLNQARFGHFTLAYSAKPQAANDQLTVLSIYTCLGVDIENFLDKESERITLIPLNEVFQVSQEGAGNNLILQSINKTCSHYECAFLGGLKTENCIENLEYFQPIYVYNPGEKNQKLEDHSEKNWKLEDHGEKNQKLEDHGVKILEPTQIPGMKIPEPFPLPEDKSQGNINNPTPGPVPVPGPKSHPSASSGKLLLPQFGMVIILISVSAINLFVAL
B3: ARMCX3, Q9UH62 (protein)
chain: MGYARKVGWVTAGLVIGAGACYCIYRLTRGRKQNKEKMAEGGSGDVDDAGDCSGARYNDWSDDDDDSNESKSIVWYPPWARIGTEAGTRARARARARATRARRAVQKRASPNSDDTVLSPQELQKVLCLVEMSEKPYILEAALIALGNNAAYAFNRDIIRDLGGLPIVAKILNTRDPIVKEKALIVLNNLSVNAENQRRLKVYMNQVCDDTITSRLNSSVQLAGLRLLTNMTVTNEYQHMLANSISDFFRLFSAGNEETKLQVLKLLLNLAENPAMTRELLRAQVPSSLGSLFNKKENKEVILKLLVIFENINDNFKWEENEPTQNQFGEGSLFFFLKEFQVCADKVLGIESHHDFLVKVKVGKFMAKLAEHMFPKSQE
B4: KRT79, Q5XKE5 (protein)
chain: MRSSVSRQTYSTKGGFSSNSASGGSGSQARTSFSSVTVSRSSGSGGGAHCGPGTGGFGSRSLYNLGGHKSISVSVAGGALLGRALGGFGFGSRAFMGQGAGRQTFGPACPPGGIQEVTVNQSLLTPLHVEIDPEIQRVRTQEREQIKTLNNKFASFIDKVRFLEQQNKVLETKWALLQEQGQNLGVTRNNLEPLFEAYLGSMRSTLDRLQSERGRLDSELRNVQDLVEDFKNKYEDEINKHTAAENEFVVLKKDVDAAYMGRMDLHGKVGTLTQEIDFLQQLYEMELSQVQTHVSNTNVVLSMDNNRNLDLDSIIAEVKAQYELIAQRSRAEAEAWYQTKYEELQVTAGKHGDNLRDTKNEIAELTRTIQRLQGEADAAKKQCQQLQTAIAEAEQRGELALKDAQKKLGDLDVALHQAKEDLTRLLRDYQELMNVKLALDVEIATYRKLLESEESRMSGECPSAVSISVTGNSTTVCGGGAASFGGGISLGGSGGATKGGFSTNVGYSTVKGGPVSAGTSILRKTTTVKTSSQRY

What follows are binders tested against SARS-CoV-2 E (assay: yeast fitness gain over the viral ORF with no human partner (scaled fitness); higher = more likely to interact).
Procedure: (§1)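 Split mouse DHFR complementation in pooled diploid yeast: human ORFeome clones carry one fragment and viral ORFs the other; barcoded lineages compete in 1 µg/mL methotrexate and fitness is read by barcode sequencing in up to three cultures.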

| Binder | yeast fitness gain |
| --- | --- |
| B1 | inactive: -0.0714 |
| B2 | inactive: 0.0753 |
| B3 | inactive: 0.0479 |
| B4 | inactive: 0.00711 |

These binders were tested against SARS-CoV-2 M in the same assay as above.
Procedure: as §1

| Binder | yeast fitness gain |
| --- | --- |
| B1 | inactive: 0.0453 |
| B2 | inactive: -0.0329 |
| B3 | inactive: -0.0117 |
| B4 | inactive: 0.00551 |

These binders were tested against SARS-CoV-2 NSP1 in the same assay as above.
Procedure: as §1

| Binder | yeast fitness gain |
| --- | --- |
| B1 | inactive: -0.214 |
| B2 | inactive: 0.0806 |
| B3 | inactive: 0.00206 |
| B4 | inactive: -0.00385 |

What follows are binders tested against SARS-CoV-2 NSP10 in the same assay as above.
Procedure: as §1

| Binder | yeast fitness gain |
| --- | --- |
| B1 | inactive: 0.0328 |
| B2 | inactive: 0.0321 |
| B3 | inactive: 0.0101 |
| B4 | inactive: 0.00965 |

Each binder was assayed against SARS-CoV-2 NSP12 in the same assay as above.
Procedure: as §1

| Binder | yeast fitness gain |
| --- | --- |
| B1 | inactive: 0.0421 |
| B2 | inactive: -0.0854 |
| B3 | inactive: 0.0219 |
| B4 | inactive: 0.0377 |

These binders were tested against SARS-CoV-2 NSP13 in the same assay as above.
Procedure: as §1

| Binder | yeast fitness gain |
| --- | --- |
| B1 | inactive: -0.0859 |
| B2 | inactive: -0.0119 |
| B3 | inactive: 0.0507 |
| B4 | active: 0.0782 |

What follows are binders tested against SARS-CoV-2 NSP15 in the same assay as above.
Procedure: as §1

| Binder | yeast fitness gain |
| --- | --- |
| B1 | inactive: 0.12 |
| B2 | inactive: -0.2 |
| B3 | inactive: -0.0364 |
| B4 | inactive: -0.0218 |

Each binder was assayed against SARS-CoV-2 NSP2 in the same assay as above.
Procedure: as §1

| Binder | yeast fitness gain |
| --- | --- |
| B1 | inactive: -0.176 |
| B3 | inactive: -0.0592 |
| B4 | inactive: -0.109 |

What follows are binders tested against SARS-CoV-2 NSP5 in the same assay as above.
Procedure: as §1

| Binder | yeast fitness gain |
| --- | --- |
| B1 | inactive: 0.000896 |
| B2 | inactive: 0.0182 |
| B3 | inactive: -0.0216 |
| B4 | inactive: -0.0123 |

What follows are binders tested against SARS-CoV-2 NSP6 in the same assay as above.
Procedure: as §1

| Binder | yeast fitness gain |
| --- | --- |
| B1 | inactive: -0.0741 |
| B2 | inactive: 0.0864 |
| B3 | inactive: 0.0265 |
| B4 | inactive: 0.0538 |

These binders were tested against SARS-CoV-2 NSP7 in the same assay as above.
Procedure: as §1

| Binder | yeast fitness gain |
| --- | --- |
| B1 | inactive: -0.00991 |
| B2 | inactive: -0.0229 |
| B3 | inactive: 0.0399 |
| B4 | inactive: 0.0348 |

The binders below were run against SARS-CoV-2 NSP8 in the same assay as above.
Procedure: as §1

| Binder | yeast fitness gain |
| --- | --- |
| B1 | inactive: 0.00825 |
| B2 | inactive: -0.149 |
| B3 | inactive: -0.076 |
| B4 | inactive: 0.0118 |

The binders below were run against SARS-CoV-2 NSP9 in the same assay as above.
Procedure: as §1

| Binder | yeast fitness gain |
| --- | --- |
| B1 | inactive: -0.571 |
| B2 | inactive: 0.0504 |
| B3 | inactive: -0.113 |
| B4 | inactive: 0.0401 |

These binders were tested against SARS-CoV-2 ORF10 in the same assay as above.
Procedure: as §1

| Binder | yeast fitness gain |
| --- | --- |
| B1 | inactive: -0.155 |
| B2 | inactive: -0.0359 |
| B3 | inactive: 0.0363 |
| B4 | inactive: 0.0289 |

What follows are binders tested against SARS-CoV-2 ORF3A in the same assay as above.
Procedure: as §1

| Binder | yeast fitness gain |
| --- | --- |
| B1 | inactive: -0.141 |
| B4 | inactive: 0.0526 |

Each binder was assayed against SARS-CoV-2 ORF3B in the same assay as above.
Procedure: as §1

| Binder | yeast fitness gain |
| --- | --- |
| B1 | inactive: 0.0472 |
| B2 | inactive: 0.0416 |
| B3 | inactive: -0.0202 |
| B4 | inactive: 0.0343 |

Each binder was assayed against SARS-CoV-2 ORF6 in the same assay as above.
Procedure: as §1

| Binder | yeast fitness gain |
| --- | --- |
| B1 | inactive: -0.0272 |
| B2 | inactive: 0.054 |
| B3 | inactive: 0.0451 |
| B4 | inactive: 0.0268 |

What follows are binders tested against SARS-CoV-2 ORF7A in the same assay as above.
Procedure: as §1

| Binder | yeast fitness gain |
| --- | --- |
| B1 | inactive: 0.0375 |
| B2 | inactive: -0.0654 |
| B3 | inactive: -0.00918 |
| B4 | inactive: -0.00131 |

Each binder was assayed against SARS-CoV-2 ORF7B in the same assay as above.
Procedure: as §1

| Binder | yeast fitness gain |
| --- | --- |
| B1 | inactive: -0.0667 |
| B2 | inactive: -0.1 |
| B3 | inactive: 0.0333 |
| B4 | inactive: 0.0126 |

What follows are binders tested against SARS-CoV-2 ORF8 in the same assay as above.
Procedure: as §1

| Binder | yeast fitness gain |
| --- | --- |
| B1 | inactive: -0.0719 |
| B2 | inactive: 0.0392 |
| B3 | inactive: 0.0153 |
| B4 | inactive: 0.065 |

What follows are binders tested against SARS-CoV-2 ORF9B in the same assay as above.
Procedure: as §1

| Binder | yeast fitness gain |
| --- | --- |
| B1 | inactive: -0.013 |
| B2 | inactive: 0.0172 |
| B3 | inactive: 0.0528 |
| B4 | inactive: 0.0272 |

The binders below were run against SARS-CoV-2 ORF9Bwu (the 73-codon ORF) in the same assay as above.
Procedure: as §1

| Binder | yeast fitness gain |
| --- | --- |
| B1 | inactive: -0.0424 |
| B2 | inactive: 0.012 |
| B3 | inactive: -0.00318 |
| B4 | inactive: 0.00191 |

Each binder was assayed against SARS-CoV-2 S in the same assay as above.
Procedure: as §1

| Binder | yeast fitness gain |
| --- | --- |
| B1 | inactive: -0.0525 |
| B2 | inactive: -0.0243 |
| B3 | inactive: 0.0536 |
| B4 | inactive: -0.00135 |

These binders were tested against SARS-CoV-2 N in the same assay as above.
Procedure: as §1

| Binder | yeast fitness gain |
| --- | --- |
| B2 | inactive: -0.164 |
| B3 | inactive: 0.00763 |
| B4 | inactive: 0.0879 |

What follows are binders tested against SARS-CoV-2 NSP16 in the same assay as above.
Procedure: as §1

| Binder | yeast fitness gain |
| --- | --- |
| B2 | inactive: -0.0928 |
| B3 | inactive: 0.00744 |
| B4 | inactive: 0.0118 |

Each binder was assayed against SARS-CoV-2 NSP4 in the same assay as above.
Procedure: as §1

| Binder | yeast fitness gain |
| --- | --- |
| B3 | inactive: -0.0467 |
| B4 | inactive: 0.11 |

The binders below were run against SARS-CoV-2 NSP14 in the same assay as above.
Procedure: as §1

| Binder | yeast fitness gain |
| --- | --- |
| B4 | inactive: 0.0805 |
